Assay results: the supplement of paper PMC10369915
This is one part of the list. Rule as the data show it: active = 3.2 or more and inactive = the rest. The signal is at background level for most entries.

Legend:
Assay in all cases: enrichment score (SH2-bound / input frequency) (ratio); bacterial display of known human phosphotyrosine sites (pTyr-Var adds point mutants) read by sequencing; higher = stronger binding; tyrosines were phosphorylated by kinases first
Conditions in all cases: peptide library: pTyr-Var
SHP2 C-SH2 domain E139D = molecular target: SHP2 C-SH2 domain E139D
[1] = molecular target: SHP2 C-SH2 domain wild-type
SHP2 N-SH2 domain L43F = molecular target: SHP2 N-SH2 domain L43F
SHP2 N-SH2 domain T42A = molecular target: SHP2 N-SH2 domain T42A
SHP2 N-SH2 domain T52S = molecular target: SHP2 N-SH2 domain T52S
[2] = molecular target: SHP2 N-SH2 domain wild-type

Measured: enrichment score
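Also: displayed peptides selected on beads carrying the immobilized SH2 domain, with library peptides lacking any tyrosine serving as negative controls.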

LEHCQYVTQKV [ALDOB_Y204_E207Q]
inactive: SHP2 C-SH2 domain E139D 0.688 | [1] 1.15 | SHP2 N-SH2 domain L43F 0.818 | SHP2 N-SH2 domain T42A 0.793 | SHP2 N-SH2 domain T52S 0.62 | [2] 1.03

KQLGEYKFQNA [ALB_Y425_E420K]
inactive: SHP2 C-SH2 domain E139D 0.781 | [1] 0.769 | SHP2 N-SH2 domain L43F 0.833 | SHP2 N-SH2 domain T42A 0.596 | SHP2 N-SH2 domain T52S 0.679 | [2] 0.759

DVCKNYAEAKD [ALB_Y343]
inactive: SHP2 C-SH2 domain E139D 0.869 | [1] 0.96 | SHP2 N-SH2 domain L43F 0.919 | SHP2 N-SH2 domain T42A 0.72 | SHP2 N-SH2 domain T52S 0.853 | [2] 1

YGLQAYTKVKT [ALDH2_Y502_E504K]
inactive: SHP2 C-SH2 domain E139D 1.29 | [1] 1.65 | SHP2 N-SH2 domain L43F 1.03 | SHP2 N-SH2 domain T42A 1.37 | SHP2 N-SH2 domain T52S 0.893 | [2] 0.839

EVDETYVPKKF [ALB_Y521_E525K]
inactive: SHP2 C-SH2 domain E139D 0.605 | [1] 0.656 | SHP2 N-SH2 domain L43F 0.561 | SHP2 N-SH2 domain T42A 0.536 | SHP2 N-SH2 domain T52S 0.587 | [2] 0.655

RLAKTYETTLE [ALB_Y377]
inactive: SHP2 C-SH2 domain E139D 0.729 | [1] 0.621 | SHP2 N-SH2 domain L43F 0.676 | SHP2 N-SH2 domain T42A 0.665 | SHP2 N-SH2 domain T52S 0.795 | [2] 0.908

DYNPNYCFAGK [ALK_Y1096]
inactive: SHP2 C-SH2 domain E139D 0.772 | [1] 0.777 | SHP2 N-SH2 domain L43F 0.606 | SHP2 N-SH2 domain T42A 0.702 | SHP2 N-SH2 domain T52S 0.447 | [2] 0.77

LYSNAYLNDLA [ALDH1A1_Y119]
inactive: SHP2 C-SH2 domain E139D 0.901 | [1] 0.782 | SHP2 N-SH2 domain L43F 1.01 | SHP2 N-SH2 domain T42A 1.45 | SHP2 N-SH2 domain T52S 0.966 | [2] 0.842

DVCKNYAKAKD [ALB_Y343_E345K]
inactive: SHP2 C-SH2 domain E139D 0.508 | [1] 0.532 | SHP2 N-SH2 domain L43F 0.544 | SHP2 N-SH2 domain T42A 0.485 | SHP2 N-SH2 domain T52S 0.502 | [2] 0.555

DPHECYAKVFD [ALB_Y394]
inactive: SHP2 C-SH2 domain E139D 1.18 | [1] 1.55 | SHP2 N-SH2 domain L43F 1.25 | SHP2 N-SH2 domain T42A 0.846 | SHP2 N-SH2 domain T52S 1.04 | [2] 1.61

EVDETYVPKEF [ALB_Y521]
inactive: SHP2 C-SH2 domain E139D 0.553 | [1] 0.443 | SHP2 N-SH2 domain L43F 0.434 | SHP2 N-SH2 domain T42A 0.489 | SHP2 N-SH2 domain T52S 0.464 | [2] 0.609

IYRASYYRKGG [ALK_Y1282]
inactive: SHP2 C-SH2 domain E139D 0.273 | [1] 0.247 | SHP2 N-SH2 domain L43F 0.243 | SHP2 N-SH2 domain T42A 0.262 | SHP2 N-SH2 domain T52S 0.302 | [2] 0.177

YPLAEYTEVKT [ALDH1A3_Y497_A493P]
inactive: SHP2 C-SH2 domain E139D 1.14 | [1] 1.35 | SHP2 N-SH2 domain L43F 0.812 | SHP2 N-SH2 domain T42A 1.74 | SHP2 N-SH2 domain T52S 0.97 | [2] 1.46

ISRASYFRKGG [ALK_Y1282_Y1278S_YF]
inactive: SHP2 C-SH2 domain E139D 0.333 | [1] 0.348 | SHP2 N-SH2 domain L43F 0.24 | SHP2 N-SH2 domain T42A 0.273 | SHP2 N-SH2 domain T52S 0.234 | [2] 0.321

DPHECYAEVFD [ALB_Y394_K396E]
inactive: SHP2 C-SH2 domain E139D 0.727 | [1] 0.751 | SHP2 N-SH2 domain L43F 0.738 | SHP2 N-SH2 domain T42A 0.735 | SHP2 N-SH2 domain T52S 1 | [2] 0.942

RSSNTYTLMDV [ALCAM_Y298_T301M]
inactive: SHP2 C-SH2 domain E139D 0.944 | [1] 0.696 | SHP2 N-SH2 domain L43F 0.515 | SHP2 N-SH2 domain T42A 2.45 | SHP2 N-SH2 domain T52S 0.746 | [2] 0.627

LYSNAYLSDLA [ALDH1A1_Y119_N121S]
inactive: SHP2 C-SH2 domain E139D 0.841 | [1] 1.16 | SHP2 N-SH2 domain L43F 0.69 | SHP2 N-SH2 domain T42A 0.737 | SHP2 N-SH2 domain T52S 0.83 | [2] 0.866

RHPFFFAPELL [ALB_Y174_Y174F_YF]
inactive: SHP2 C-SH2 domain E139D 2.94 | [1] 3.05 | SHP2 N-SH2 domain L43F 2.72 | SHP2 N-SH2 domain T42A 2.91 | SHP2 N-SH2 domain T52S 3.14 | [2] 2.65

MARDISRASFF [ALK_Y1278_Y1278S_YF]
inactive: SHP2 C-SH2 domain E139D 0.719 | [1] 0.649 | SHP2 N-SH2 domain L43F 0.655 | SHP2 N-SH2 domain T42A 0.586 | SHP2 N-SH2 domain T52S 0.678 | [2] 0.748
